Measurements reported in publication PMC4336329 (PLoS ONE, 2015).
Screen size: about 310,000 compounds; about 14,000 (4.5%) showed an effect of 50% or more. The effect is printed as a negative number. The list shows a part of the results.

molecular target: human ether-à-go-go-related gene (hERG) potassium channel (human, UniProt Q12809); test: primary screen, population patch clamp on CHO cells stably expressing hERG
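Also: peak tail current of the secondary pulse compared with the same well before compound.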

Chain of human ether-à-go-go-related gene (hERG) potassium channel (Q12809 whole entry, looked up): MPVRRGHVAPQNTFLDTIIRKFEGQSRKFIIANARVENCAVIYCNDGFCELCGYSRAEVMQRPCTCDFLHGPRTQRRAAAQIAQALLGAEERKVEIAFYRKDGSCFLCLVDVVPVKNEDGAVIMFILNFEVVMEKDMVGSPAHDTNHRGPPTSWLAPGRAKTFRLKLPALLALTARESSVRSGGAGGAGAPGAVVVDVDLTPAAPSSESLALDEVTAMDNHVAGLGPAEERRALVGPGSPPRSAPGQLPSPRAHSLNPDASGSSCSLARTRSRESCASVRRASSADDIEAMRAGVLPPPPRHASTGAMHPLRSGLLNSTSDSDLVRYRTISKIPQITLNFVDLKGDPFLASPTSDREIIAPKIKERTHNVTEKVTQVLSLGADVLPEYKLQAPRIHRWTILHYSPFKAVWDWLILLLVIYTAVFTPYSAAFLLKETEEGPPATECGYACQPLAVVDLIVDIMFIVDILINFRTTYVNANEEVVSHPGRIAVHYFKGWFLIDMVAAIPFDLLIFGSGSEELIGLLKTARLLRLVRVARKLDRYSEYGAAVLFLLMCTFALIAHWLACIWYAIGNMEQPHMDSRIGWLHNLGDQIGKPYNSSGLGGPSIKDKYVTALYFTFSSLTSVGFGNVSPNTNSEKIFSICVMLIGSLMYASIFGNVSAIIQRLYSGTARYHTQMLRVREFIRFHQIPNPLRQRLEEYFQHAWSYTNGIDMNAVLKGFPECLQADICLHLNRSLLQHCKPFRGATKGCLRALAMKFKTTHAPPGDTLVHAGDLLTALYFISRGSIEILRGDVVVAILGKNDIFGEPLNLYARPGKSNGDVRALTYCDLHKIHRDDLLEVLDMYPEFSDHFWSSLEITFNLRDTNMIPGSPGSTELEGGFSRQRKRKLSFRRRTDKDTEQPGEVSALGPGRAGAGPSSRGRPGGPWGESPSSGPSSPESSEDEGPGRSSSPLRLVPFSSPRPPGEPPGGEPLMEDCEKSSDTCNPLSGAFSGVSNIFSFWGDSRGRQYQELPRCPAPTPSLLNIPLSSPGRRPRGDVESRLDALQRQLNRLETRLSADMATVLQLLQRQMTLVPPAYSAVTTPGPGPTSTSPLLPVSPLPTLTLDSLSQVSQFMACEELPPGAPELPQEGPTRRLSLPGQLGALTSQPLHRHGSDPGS

SMILES | hERG current change (%, negative = inhibition) at 10uM [%]
O=c1cc2c(nn1Cc1ccc(Cl)cc1Cl)-c1ccccc1CC2 | 5.14
Cc1ccc(-n2c(=O)[nH]cc(C(=O)N3CCc4ccccc43)c2=O)cc1 | 3.92
CCOc1ccc(NC(=O)c2ccccc2-c2ccccc2C(=O)O)cc1 | 19
Cc1ccn(CCC(=O)N2c3ccccc3CC2C)n1 (stereo not shown) | 22.4
O=C1CC(c2cccc([N+](=O)[O-])c2)c2ccc3ccccc3c2N1 (stereo not shown) | -30.4
COc1ccc2c(c1OC)C(=O)N(c1ccc(O)cc1)C2 | 13.5
NC(=O)CC(NC(=O)c1ccc(Br)cc1)c1ccc(NCCc2ccc(F)cc2)c([N+](=O)[O-])c1 (stereo not shown) | 9.66
O=C(Nc1ccc(N2CCOCC2)nc1)c1ccc(Cl)cc1 | -11.5
CCN1CCN(c2oc(-c3ccc(OC)cc3)nc2C#N)CC1 | -45.6
Cc1cc(Cl)c2ccc(Cl)cc2n1 | 1.65
COc1cc(NC(=O)c2cc(S(=O)(=O)N3CCc4ccccc43)cn2C)cc(OC)c1OC | 17.5
COc1ccc(CNC(=O)c2cc(-c3ccccc3O)n[nH]2)cc1 | 5.51
COc1ccc(-n2c(SCC(=O)OC(C)C)nnc2-c2ccccn2)cc1 | -14.4
COc1ccc(C(=O)N/C(=C/c2cccnc2)C(=O)N2CCCCCC2)cc1OC | 10.5
COc1cc(NC(=O)CSc2nnnn2Cc2ccccc2)cc(OC)c1 | 8.56
O=[N+]([O-])C1=CC=C2C(=NC3(CCCCC3)N2O)C1=NC1CCCCC1 | 29.2
CCCS(=O)(=O)N1CCN(C(=O)c2cc(OC)cc(OC)c2)CC1 | 1.94
CC(=O)N1c2ccc(N=Cc3cc(Br)cc(Br)c3O)cc2CC1C (stereo not shown) | 2.6
CCSc1nc(-c2ccccc2)c(-c2ccccc2)n1CC(O)CO (stereo not shown) | -2.23
CC(C)OP(=O)(c1ccc(N(C)C)cc1)C(O)c1ccc(N(C)C)cc1 (stereo not shown) | -3.47
O=C(c1ccco1)N1CCN=C1SCc1cccc(F)c1 | -6.98
CC(=O)NNC(=O)c1sc(=S)n(C)c1C | 5.27

SMILES | hERG current change (%, negative = inhibition) at 10uM [%]
Cn1c(/C(C#N)=C/c2ccc(-c3ccc(S(N)(=O)=O)cc3)o2)nc2ccccc21 | -38.1
Cc1nc(-c2cccc(NC(=O)C3CCCCC3)c2)cs1 | -6.57
COc1ccc(C(OC(=O)c2cccs2)C(=O)NCC2CCCO2)cc1 (stereo not shown) | -14.3
COc1cc(C(=O)NNC(=O)c2ccccc2OCc2c(C)noc2C)cc(OC)c1OC | 5.74
O=C(NCc1ccccn1)c1ccc(CNS(=O)(=O)c2ccc(F)cc2)cc1 | 9.75
CCN(CC(=O)Nc1cccc(C#N)c1)CC(=O)Nc1cccc(OC)c1 | -9.48
C=CCC1(C)C(=O)N(c2ccccc2)c2ccccc21 (stereo not shown) | 16.1
O=C(Cc1ccc(Cl)cc1Cl)Nc1cccc(S(=O)(=O)Nc2ccccc2F)c1 | -1.71
COC(=O)c1ccc(Cn2nc(C)c(Br)c2C)cc1 | 26.7
COc1ccc(OC)c(/C=C/C(=O)Nc2cccc(S(=O)(=O)NC3=NCCCCC3)c2)c1 | 1.28
Cc1ccc(NC(=O)Cc2ccccc2F)cc1S(=O)(=O)N1CCCCCC1 | -6.21
CCOC(=O)/C=c1\s/c(=C\c2sccc2C)c(=O)n1CC(=O)NCc1ccc(C)cc1 | 20.6
Cc1ccc(N2CC(C(=O)Nc3ccc(N(C)C)cc3)CC2=O)cc1C (stereo not shown) | 1.21
CCC(C)(C)NC(=O)C(c1ccc(C)cc1)N(CC1CCCO1)C(=O)CCC(=O)Nc1ccccn1 (stereo not shown) | 6.53
O=S(=O)(NC1CCCCC1Sc1ncccn1)c1ccc(Cl)cc1 (stereo not shown) | -50.9
CCCOc1ccc(S(=O)(=O)n2cc(Br)c(=O)[nH]c2=O)cc1 | -21
Cc1ccc(C(=O)NCc2ccccn2)cc1S(=O)(=O)N1CCCCC1 | 9.25
O=C(Nc1ccc(/C=C/c2nc3ccccc3o2)cc1)c1ccc(F)cc1 | 6.41
CC(=O)/C(=N/Nc1ccc(Br)cc1)Sc1cccc2cccnc12 | 3.52
CCn1c(=O)cc(OCC(=O)Nc2cccnc2)c2ccccc21 | 6.17
COc1ccc(N2CCN(C(=O)c3ccc(C)cc3Cl)CC2)cc1 | -24.4
O=C(COc1ccc(Cl)cc1)Nc1ccccc1Cl | 3.26

SMILES | hERG current change (%, negative = inhibition) at 10uM [%]
CC1Cc2c([nH]c3ccccc23)C(=O)N1 (stereo not shown) | 19.2
COc1cc(OC)cc(C(=O)Nc2ccc(C(=O)c3ccncc3)cc2)c1 | -40.2
CSc1cccc(NC(=O)/C=C/c2ccco2)c1 | 1.51
COC(=O)c1c(NC(=O)COC(=O)[C@@H](NS(=O)(=O)c2ccc(C)cc2)C(C)C)sc2c1CCC2 | 1.93
CCC(=O)N(Cc1ccco1)Cc1cc2cc3c(cc2[nH]c1=O)OCO3 | 13.9
O=C(C1CCN(S(=O)(=O)c2cccs2)CC1)N(c1ccccn1)C1CCCCC1 | 13.4
CCCCC(=O)Nc1cccc(NC(=O)c2ccc(Br)cc2)c1 | 32.9
COc1ccc(/C=N/n2c(SC)nnc(C(C)(C)C)c2=O)cc1OC | -20.9
CC(=O)N[C@@H](CC(=O)O)C(=O)O | 6.54
CCn1c(SCC(=O)OC)nnc1C1CCCCC1 | 6.57
COc1ccc(OCC#CCN2CCNCC2)cc1.O=C(O)C(=O)O | 21.6
CCN1C(=O)CSc2ccc(C(=O)NCc3ccco3)cc21 | 4.44
COC(=O)c1ccc(COC(=O)C(CCS(C)(=O)=O)N2C(=O)c3ccccc3C2=O)cc1 (stereo not shown) | -13.9
O=C(NCCC1CCCCN1S(=O)(=O)c1cccs1)C(=O)Nc1ccccc1 (stereo not shown) | -10.1
Cc1nc2ccccc2c2c1C(=O)NC2=O | -1.6
O=C(COc1ccc(Br)cc1)N/N=C1/SCC(=O)N1Cc1ccco1 | -59.8
Cc1ccc(NC(=O)C(=O)NCCN2CCN(S(=O)(=O)c3ccccc3)CC2)cc1C | 16.3
O=C(NCCC1CCCCN1S(=O)(=O)c1ccccc1)C(=O)NCc1ccc(F)cc1 (stereo not shown) | -45.4
COc1ccc(C(=O)C2CCCN(C(=O)c3cccs3)C2)cc1F (stereo not shown) | -8.95
Cc1cc(C)c(S(=O)(=O)NCCCn2ccnc2)cc1C | 4.04
Cc1cc(OC(C)C(=O)NCc2cccnc2)c2c(C)cc(=O)oc2c1 (stereo not shown) | -31.3
O=C(COC(=O)c1cnc(Cl)c(Cl)c1)NCc1ccco1 | -9.32

SMILES | hERG current change (%, negative = inhibition) at 10uM [%]
NC(=O)CCN1CCN(S(=O)(=O)/C=C/c2ccccc2)CC1 | 4.68
COc1ccccc1Nc1nc2cc(C)ccc2cc1C#N | 3.81
NC(=S)Nc1ccc(Oc2ccc(NC(N)=S)cc2)cc1 | 12.8
CCN(Cc1ccccc1)S(=O)(=O)c1ccc(C(=O)N2CCN(c3nc4ccccc4s3)CC2)cc1 | 4.79
C=C(NC(C)=O)c1c(F)cccc1F | 14.9
O=S(=O)(Cc1ccccc1)c1nc2ccccc2n1Cc1ccccn1 | -0.831
CCOC(=O)C1=C(CNCc2ccccc2Cl)NC(=O)NC1c1cccc([N+](=O)[O-])c1 (stereo not shown) | -12.8
COc1ccc(/C(C)=N\Nc2nc(-c3ccc(Cl)cc3)cc(C(F)(F)F)n2)cc1OC | -9.16
Cc1nc2cccc(C(=O)Oc3ccc([N+](=O)[O-])cc3)c2o1 | -25
O=C(Nc1cn(-c2ccccc2)nc1-c1cccs1)c1ccco1 | -11.9
COc1ccc(N2CCN(S(=O)(=O)c3ccc4c(c3)CCCC4)CC2)c([N+](=O)[O-])c1 | 6.51
CCN1CCCc2cc(CN(CCN3CCOCC3)C(=S)Nc3ccccc3OC)ccc21 | -11.3
Cn1c(=O)[nH]c(=O)c2c1nc(N1CCCCC1)n2CCSc1ncccn1 | -0.771
CCC(NC(=O)Nc1nccs1)(C(F)(F)F)C(F)(F)F | -8.16
O=C(Nc1cccc2ncccc12)C12CC3CC(CC(C3)C1)C2 | -6.2
O=C(CNC(=O)c1ccco1)N/N=C/c1cc(Br)ccc1O | 18.2
O=C(C[n+]1ccccc1)Nc1nc2ccccc2s1.[Cl-] | 0.223
CCC(C)C(NC(=O)c1ccccc1NC(=O)c1ccco1)C(=O)O (stereo not shown) | 0.615
O=C(COC(=O)Cc1ccccc1)Nc1cc(S(=O)(=O)N2CCCCC2)ccc1Cl | -81.8
CCN(CC(=O)Nc1ccc2c(c1)OCCO2)C(=O)c1cc(Cl)nc2ccccc12 | -8.58
c1ccc(-n2nnc3ccccc32)cc1 | -8.05
CCc1nc2sc3c(c2c(=O)n1N)CCC3 | 15.7
